# Source: PMC10668032
# The list shows a part of the results. At the low end of the ranking, values are background and their order means little.
# Target: SIX1-Q177R homeodomain (UniProt Q15475)
# Assay: universal protein binding microarray
# Conditions: Universal all-10-mer PBM (8x60K, AMADID 030236), 300 nM GST-tagged protein, Alexa Fluor 488 anti-GST; buffer, salt, pH and temperature not stated; high values mean tight binding; most listed sequences are background and not binding sites; double strand, one strand shown
row,Sequence,binding signal [E-score]
1,CGATTGCA,-0.0512
2,CCACATAG,-0.131
3,GCTGCCTA,-0.127
4,GCCGCGCA,-0.225
5,ATCAATGA,-0.0561
6,CATTTCAC,-0.214
7,ACTTAGTA,-0.0409
8,ACGTCCTC,-0.0219
9,AGTACATC,0.0196
10,GCACTCAC,0.0395
11,ATAGGCCA,-0.229
12,TCAGACGA,-0.14
13,AGAAACGA,-0.0723
14,AAGTCCTC,-0.304
15,AAAGGGTA,0.0379
16,AATTACAG,-0.158
17,CAGCACAC,0.269
18,GGTGAACC,-0.0298
19,CGCGTACG,-0.0515
20,CACCCGTC,0.338
21,CTTCTGCA,-0.0739
22,CCCCTTGC,0.0721
23,AACGTGAA,-0.229
24,CGCCAAAA,-0.186
25,ATCACCCG,0.137

row,Sequence,binding signal [E-score]
1,ACTGTAAG,0.0413
2,GACCTGCA,-0.08
3,GTATTTAA,0.0599
4,AGAATCAA,0.0333
5,AAGCGGCT,-0.254
6,CCCGTGTA,0.453
7,CCAGGAGA,-0.0984
8,GTCCTCAC,-0.0686
9,AACAGGTA,-0.113
10,GATGGTGC,0.0635
11,ATCTCCAA,-0.118
12,CGGAGGAG,0.12
13,GTAAGGTA,0.0966
14,ACGTGCCG,0.0403
15,GGTTCGTA,-0.0259
16,ATATTTCC,-0.158
17,GACGTCCC,-0.134
18,CCGAGCCG,-0.0934
19,AGTGACGA,-0.108
20,CGTCTCTC,-0.0434
21,ACTTGGGA,-0.101
22,GTACGCGA,-0.0273
23,AGTAATCG,0.13
24,CAACAACA,0.195
25,ACTTCGAC,-0.0545

row,Sequence,binding signal [E-score]
1,ATAAGATA,-0.128
2,CGGTGCGC,0.221
3,ATCACTAG,0.0582
4,AACCCGCA,0.0339
5,GAAACTTC,-0.283
6,AGGTTACC,-0.0683
7,GATAAAAC,-0.0264
8,ATTCTTAG,-0.222
9,AGGGACCA,-0.257
10,ATTTTATC,-0.0664
11,CGAGCAGC,0.0412
12,CATTGACC,0.0462
13,CACGCAAA,0.251
14,ACGGACAC,0.41
15,CGAAAATA,0.123
16,AAGCTCAT,-0.237
17,TAGGGAAA,-0.00598
18,ATGCCTTA,-0.131
19,ATGACTTG,-0.294
20,GAGACATC,-0.236
21,AGGGGGCG,0.0792
22,GCACAGGC,-0.171
23,ATTCTAAC,0.0579
24,ATTAGTGA,0.0101
25,ATACGTAC,0.115

row,Sequence,binding signal [E-score]
1,ATCTGGGC,-0.158
2,ATTACTAG,-0.143
3,ACGTTAAT,0.0212
4,GATCGGTA,-0.13
5,TACTGATA,0.192
6,TAATAAGA,-0.12
7,ATCAGGCG,0.0278
8,CGTGGCTA,-0.078
9,CGCCCCGC,0.0557
10,TACCAATA,0.0282
11,CGAAGTCG,-0.0694
12,CACCCGGA,0.388
13,GAAGAGCA,-0.171
14,ATCGGTAG,-0.144
15,CACAGACA,0.155
16,TATCCGAA,0.119
17,ATGTGCGC,-0.0512
18,GCAGACTA,-0.175
19,CTTAACGC,-0.0882
20,AGCGAGAT,-0.0449
21,GGACGTAC,-0.0768
22,GGCCGTGA,-0.0389
23,GCGATAGA,-0.104
24,AACGTAGA,0.106
25,CTCACTAC,0.0856

row,Sequence,binding signal [E-score]
1,CGAGCTAG,-0.00664
2,AAAAAGGA,-0.164
3,GCTTGGTA,0.0497
4,GGCAGACA,0.0792
5,ACAACACG,0.358
6,CTATAGCA,-0.176
7,AACGACTA,-0.209
8,CAATGTTA,-0.288
9,AACAAGAG,-0.174
10,GTGAGCCA,-0.238
11,ACGAGTAA,-0.00908
12,CTAAAGTC,-0.233
13,CGCAGACA,0.0814
14,CAATATCA,-0.015
15,GTTCTGGA,0.0632
16,AGGACAAA,-0.286
17,GGCAATCA,-0.0706
18,CGAATGTA,-0.043
19,TGGGAGAA,-0.0914
20,CGGCGGAG,0.211
21,GCGTTACA,0.201
22,ATAGATAG,-0.138
23,CATAGTTA,-0.0356
24,ACAGCTTC,-0.208
25,ACTACATG,-0.112

row,Sequence,binding signal [E-score]
1,CTCAAGTC,-0.219
2,CGAGGGGC,0.0235
3,AGCACCAT,0.16
4,ATAGAAGA,-0.272
5,ACTAGACT,-0.0342
6,ACAGCAAA,-0.0813
7,ACAGCCTG,-0.0957
8,ATAGTTGG,-0.183
9,TGGAGGAA,-0.128
10,CAGAAACC,0.00763
11,AATCTGGA,0.0516
12,GTAACAAC,-0.0438
13,CCACGTGC,-0.0381
14,CCACAGGC,-0.0419
15,CTTGGAGA,-0.0657
16,ACCACTGC,-0.00848
17,CGGTTTTA,0.076
18,GAGTAGCC,-0.0759
19,AACTCCGT,0.128
20,CCCAGCGC,-0.0653
21,ACTACATC,0.0445
22,AATAACGT,-0.0629
23,CCTGGCGA,0.0703
24,CGGTAAGC,-0.197
25,AGCGTTTC,-0.07

row,Sequence,binding signal [E-score]
1,GCAAAGCC,-0.0794
2,TCTGAACA,0.117
3,GTACAGCA,0.00477
4,AACGAAAA,-0.0599
5,CGGATAGA,-0.0725
6,GAAATGTC,-0.197
7,AATTTTGA,0.0825
8,CCACGTAC,0.0213
9,GACGATGC,-0.0395
10,ATAAATAC,0.0357
11,CGAGATAA,0.0656
12,ATACTTTG,-0.138
13,AAGTGTAA,0.4
14,CTATTGAG,-0.0157
15,AGTGTCAG,0.444
16,ACATTACA,0.114
17,AGTAAGTC,0.0331
18,AATTAACT,-0.0745
19,ACCCGGGG,0.297
20,CCCGGGCA,0.13
21,GATAGACA,0.0823
22,GAATAGTA,-0.018
23,ACAATTCT,-0.202
24,AGATGTCG,-0.0403
25,ATTTCGTC,-0.179

row,Sequence,binding signal [E-score]
1,CAGCGGAC,-0.131
2,TCAACCGA,-0.13
3,ATGTCGTA,-0.0526
4,ATGAGTGA,-0.118
5,CGCGTATC,0.155
6,GGTTGCTA,-0.122
7,ACTACTGC,-0.19
8,CTGTGGCC,-0.187
9,CGGAGTAC,0.229
10,CCGCTATA,-0.0308
11,CCACAACC,-0.0338
12,ACCGTAGA,0.0295
13,GTGAGCAA,-0.0741
14,AGCTTGAT,-0.126
15,CGATCGAA,-0.0295
16,AACTGACC,-0.0459
17,AAAAAAAT,-0.266
18,CTATCCGC,-0.171
19,AGCCAGTC,0.018
20,GAGTGTCC,0.406
21,AGGTACCT,0.129
22,CATGCCTA,-0.274
23,ACCATGCC,0.0501
24,CTACTGTA,0.137
25,CAATAGTG,0.17

row,Sequence,binding signal [E-score]
1,GGGGGGAC,-0.0437
2,CAGTTTCC,-0.102
3,CAACCTGG,0.0935
4,ACTGAACA,0.0692
5,GACTAATA,-0.137
6,AGTTATCA,-0.187
7,AATAGCCG,-0.0922
8,ACCTCCTA,0.149
9,AAACATCC,-0.0426
10,CGAGGTAC,0.0579
11,CCGGGACA,0.104
12,ATACTTCG,-0.0819
13,AATGGGAC,-0.256
14,AAGGAATT,-0.277
15,AATTTCGT,-0.159
16,AGTATATC,-0.132
17,GAGAAACA,0.0411
18,GCGACGCA,0.0242
19,TCGTCCCA,-0.168
20,CAAACTTC,-0.214
21,TCGGAAAA,-0.113
22,AGTCCATC,-0.117
23,GTCAATAA,-0.0584
24,ATGACGTA,-0.0851
25,AATATCGC,-0.322

row,Sequence,binding signal [E-score]
1,CTCCAATA,-0.17
2,GACTTTAA,-0.235
3,ATGCCCAA,-0.205
4,AACGACAC,0.447
5,CACGCGAA,0.0834
6,CCATATGC,-0.0273
7,TGGAGAAA,-0.208
8,AGCCTGTA,-0.0447
9,CTGGGATA,0.0215
10,TATGTCGA,-0.267
11,CGCCGAAG,-0.113
12,ATTGCGGC,-0.121
13,CCGTTACG,0.00018
14,CTTGGAAC,-0.127
15,ACCGTAAT,-0.136
16,GATGTCTA,-0.158
17,AGGGATTA,-0.0304
18,GCCCAAAC,0.0628
19,CAGGGCGG,-0.0444
20,GTGCGCCA,0.148
21,GAAGGACA,0.176
22,ATTTAGTC,-0.0571
23,TGTTTCAA,-0.00756
24,CAGGTTGG,0.00023
25,GCCGCAGC,-0.17

row,Sequence,binding signal [E-score]
1,ACATGACA,0.179
2,CGATGATA,0.039
3,GATAAGGC,-0.0639
4,CGAACACG,0.356
5,TAGCGTAA,-0.00532
6,AGCCCCCG,0.0315
7,GGTGAAGA,0.0135
8,GTCCTCCA,0.125
9,ATAACGTA,-0.137
10,GACGACCA,-0.0548
11,ACTAAGAG,0.0429
12,AGTCACTC,0.0396
13,AGGTTTCG,-0.102
14,CCCAACGC,0.0779
15,ACTATCTA,-0.0674
16,TCCCATCA,-0.0202
17,CACCACAC,0.426
18,TGAATTAA,-0.165
19,AGACGTCT,-0.293
20,AGCTTTTG,-0.262
21,CGGCTTAC,-0.0076
22,AAGTAGGA,0.0702
23,TCCACCAA,0.0144
24,ATAGCGAG,-0.088
25,CGGGAGTC,0.232

row,Sequence,binding signal [E-score]
1,CCCATTTA,0.0242
2,CTGTCGTC,-0.163
3,AACCTGGA,0.0671
4,ACTATAAA,-0.0995
5,TACCAAGA,-0.0432
6,CTTGGGTC,-0.0354
7,AGATTATC,-0.254
8,CTCTCGGC,-0.0693
9,CTAGAACA,0.101
10,CAATGTTC,-0.261
11,GACTACAC,0.428
12,GCCTCTCC,-0.0627
13,ACCCTTGC,0.141
14,ATCATGTC,0.147
15,AGTGGCTG,-0.251
16,GCAGTCAA,-0.348
17,TATTATCA,-0.12
18,AGATGCGG,-0.0318
19,AGCGAGGA,-0.0976
20,GTTTCGGA,-0.0967
21,CATCACTA,-0.0786
22,AACATGCG,-0.26
23,AGCTACTG,-0.106
24,CATACGTA,-0.217
25,GTAAAACA,0.0695

row,Sequence,binding signal [E-score]
1,CCCACGAA,-0.11
2,AGCGCCCT,-0.0779
3,ATAGTCTG,-0.0411
4,CGCCCTGA,0.00581
5,ATCGTGCG,0.0462
6,CATCCGTA,-0.129
7,CCAAGACA,0.223
8,CAAACGCC,-0.155
9,CCCTGACA,0.181
10,AAGTTGGC,-0.321
11,GCCGGGGA,-0.0563
12,AGTCAAGA,-0.127
13,CGCGTCAG,0.154
14,TAAATGAA,-0.0323
15,CTCGGCAA,-0.0573
16,TAGAGACA,-0.0991
17,CCCTGTAG,0.06
18,ACCAGAAG,-0.0313
19,CCCGACCA,0.204
20,CACATTGA,-0.0956
21,CGAGGAGA,-0.2
22,CATTCGCC,-0.135
23,TAGCTGCA,-0.117
24,ATCGGAGA,-0.031
25,ATGACCTG,-0.0659

row,Sequence,binding signal [E-score]
1,CAGTCATC,-0.102
2,CGGCGAAG,-0.175
3,TAAACACA,0.214
4,CCATCAAA,-0.157
5,GCGTCTAC,-0.16
6,CAAGTCTG,-0.00441
7,CGTTCCCC,0.0159
8,AGATCCCC,0.243
9,AGAGATTA,-0.126
10,CAGGGATG,0.131
11,CTGCTCGA,-0.0578
12,CACAATCA,-0.12
13,ACGGCAGG,0.134
14,GCATGAGC,-0.168
15,ATCATCCA,0.00939
16,ATAATTGA,-0.112
17,ATAATAAA,0.00984
18,CATATCAC,0.0401
19,AATTACCA,-0.0222
